Results published in the supplement of paper PMC8728848.
This is one part of the list.

What was measured:
Assay in all cases: glycan array binding signal (z-score within array); higher = stronger binding
Conditions in all cases: glycan notation: IUPAC condensed, linker removed
Neu5Ac(a2-3)Gal(b1-4)Glc = target: Neu5Ac(a2-3)Gal(b1-4)Glc
Procedure, shortened: (§1)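 Arrays were curated from the Consortium for Functional Glycomics database, 3228 in total, and kept only where the protein sequence was available. Binding is expressed as a within-array Z-score. This score was averaged across arrays of the same protein sequence at different concentrations or buffers and across linkers, and negative values can be read as non-binding.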

[1] = target: Neu5Ac(a2-3)Gal(b1-4)GlcNAc
Procedure, shortened: as §1

[2] = target: Neu5Ac(a2-3)Gal(b1-4)GlcNAc(b1-2)Man
Procedure, shortened: as §1

[3] = target: Neu5Ac(a2-3)Gal(b1-4)GlcNAc(b1-2)Man(a1-3)[GlcNAc(b1-4)][Neu5Ac(a2-3)Gal(b1-4)GlcNAc(b1-2)Man(a1-6)]Man(b1-4)GlcNAc(b1-4)GlcNAc
Procedure, shortened: as §1

[4] = target: Neu5Ac(a2-3)Gal(b1-4)GlcNAc(b1-2)Man(a1-3)[Neu5Ac(a2-3)Gal(b1-4)GlcNAc(b1-2)Man(a1-6)]Man(b1-4)GlcNAc(b1-4)GlcNAc
Procedure, shortened: as §1

[5] = target: Neu5Ac(a2-3)Gal(b1-4)GlcNAc(b1-2)Man(a1-3)[Neu5Ac(a2-3)Gal(b1-4)GlcNAc(b1-2)Man(a1-6)]Man(b1-4)GlcNAc(b1-4)[Fuc(a1-6)]GlcNAc
Procedure, shortened: as §1

[6] = target: Neu5Ac(a2-3)Gal(b1-4)GlcNAc(b1-2)Man(a1-3)[Neu5Ac(a2-6)Gal(b1-4)GlcNAc(b1-2)Man(a1-6)]Man(b1-4)GlcNAc(b1-4)GlcNAc
Procedure, shortened: as §1

[7] = target: Neu5Ac(a2-3)Gal(b1-4)GlcNAc(b1-2)[Neu5Ac(a2-3)Gal(b1-4)GlcNAc(b1-4)]Man(a1-3)[GlcNAc(b1-4)][Neu5Ac(a2-3)Gal(b1-4)GlcNAc(b1-2)[Neu5Ac(a2-3)Gal(b1-4)GlcNAc(b1-6)]Man(a1-6)]Man(b1-4)GlcNAc(b1-4)GlcNAc
Procedure, shortened: as §1

[8] = target: Neu5Ac(a2-3)Gal(b1-4)GlcNAc(b1-2)[Neu5Ac(a2-3)Gal(b1-4)GlcNAc(b1-4)]Man(a1-3)[GlcNAc(b1-4)][Neu5Ac(a2-3)Gal(b1-4)GlcNAc(b1-4)Man(a1-6)]Man(b1-4)GlcNAc(b1-4)GlcNAc
Procedure, shortened: as §1

[9] = target: Neu5Ac(a2-3)Gal(b1-4)GlcNAc(b1-2)[Neu5Ac(a2-3)Gal(b1-4)GlcNAc(b1-6)]Man(a1-6)[Neu5Ac(a2-3)Gal(b1-4)GlcNAc(b1-2)Man(a1-3)]Man(b1-4)GlcNAc(b1-4)GlcNAc
Procedure, shortened: as §1

[10] = target: Neu5Ac(a2-3)Gal(b1-4)GlcNAc(b1-2)[Neu5Ac(a2-3)Gal(b1-4)GlcNAc(b1-6)]Man(a1-6)[Neu5Ac(a2-3)Gal(b1-4)GlcNAc(b1-2)Man(a1-3)][GlcNAc(b1-4)]Man(b1-4)GlcNAc(b1-4)GlcNAc
Procedure, shortened: as §1

[11] = target: Neu5Ac(a2-3)Gal(b1-4)GlcNAc(b1-3)Gal
Procedure, shortened: as §1

[12] = target: Neu5Ac(a2-3)Gal(b1-4)GlcNAc(b1-3)Gal(b1-3)GlcNAc
Procedure, shortened: as §1

[13] = target: Neu5Ac(a2-3)Gal(b1-4)GlcNAc(b1-3)Gal(b1-4)GlcNAc
Procedure, shortened: as §1

[14] = target: Neu5Ac(a2-3)Gal(b1-4)GlcNAc(b1-3)Gal(b1-4)GlcNAc(b1-2)Man(a1-3)[Neu5Ac(a2-3)Gal(b1-4)GlcNAc(b1-3)Gal(b1-4)GlcNAc(b1-2)Man(a1-6)]Man(b1-4)GlcNAc(b1-4)GlcNAc
Procedure, shortened: as §1

[15] = target: Neu5Ac(a2-3)Gal(b1-4)GlcNAc(b1-3)Gal(b1-4)GlcNAc(b1-3)Gal(b1-4)GlcNAc
Procedure, shortened: as §1

[16] = target: Neu5Ac(a2-3)Gal(b1-4)GlcNAc(b1-3)Gal(b1-4)GlcNAc(b1-3)Gal(b1-4)GlcNAc(b1-2)Man(a1-3)[Neu5Ac(a2-3)Gal(b1-4)GlcNAc(b1-3)Gal(b1-4)GlcNAc(b1-3)Gal(b1-4)GlcNAc(b1-2)Man(a1-6)]GalNAc
Procedure, shortened: as §1

[17] = target: Neu5Ac(a2-3)Gal(b1-4)GlcNAc(b1-3)Gal(b1-4)GlcNAc(b1-3)GalNAc
Procedure, shortened: as §1

[18] = target: Neu5Ac(a2-3)Gal(b1-4)GlcNAc(b1-3)Gal(b1-4)GlcNAc(b1-3)[Neu5Ac(a2-3)Gal(b1-4)GlcNAc(b1-3)Gal(b1-4)GlcNAc(b1-6)]GalNAc
Procedure, shortened: as §1

[19] = target: Neu5Ac(a2-3)Gal(b1-4)GlcNAc(b1-3)Gal(b1-4)GlcNAc(b1-6)[Gal(b1-3)]GalNAc
Procedure, shortened: as §1

[20] = target: Neu5Ac(a2-3)Gal(b1-4)GlcNAc(b1-3)Gal(b1-4)[Fuc(a1-3)]GlcNAc
Procedure, shortened: as §1

[21] = target: Neu5Ac(a2-3)Gal(b1-4)GlcNAc(b1-3)GalNAc
Procedure, shortened: as §1

[22] = target: Neu5Ac(a2-3)Gal(b1-4)GlcNAc(b1-3)[Neu5Ac(a2-3)Gal(b1-4)GlcNAc(b1-6)]GalNAc
Procedure, shortened: as §1

[23] = target: Neu5Ac(a2-3)Gal(b1-4)GlcNAc(b1-6)GalNAc
Procedure, shortened: as §1

[24] = target: Neu5Ac(a2-3)Gal(b1-4)GlcNAc(b1-6)[Gal(b1-3)]GalNAc
Procedure, shortened: as §1

[25] = target: Neu5Ac(a2-3)Gal(b1-4)GlcNAc(b1-6)[Neu5Ac(a2-3)Gal(b1-3)]GalNAc
Procedure, shortened: as §1

[26] = target: Neu5Ac(a2-3)Gal(b1-4)GlcNAc6S
Procedure, shortened: as §1

[27] = target: Neu5Ac(a2-3)Gal(b1-4)[Fuc(a1-3)]GlcNAc
Procedure, shortened: as §1

[28] = target: Neu5Ac(a2-3)Gal(b1-4)[Fuc(a1-3)]GlcNAc(b1-2)Man
Procedure, shortened: as §1

[29] = target: Neu5Ac(a2-3)Gal(b1-4)[Fuc(a1-3)]GlcNAc(b1-3)Gal
Procedure, shortened: as §1

[30] = target: Neu5Ac(a2-3)Gal(b1-4)[Fuc(a1-3)]GlcNAc(b1-3)Gal(b1-4)GlcNAc
Procedure, shortened: as §1

[31] = target: Neu5Ac(a2-3)Gal(b1-4)[Fuc(a1-3)]GlcNAc(b1-3)Gal(b1-4)[Fuc(a1-3)]GlcNAc(b1-3)Gal(b1-4)[Fuc(a1-3)]GlcNAc
Procedure, shortened: as §1

[32] = target: Neu5Ac(a2-3)Gal(b1-4)[Fuc(a1-3)]GlcNAc(b1-3)GalNAc
Procedure, shortened: as §1

[33] = target: Neu5Ac(a2-3)Gal(b1-4)[Fuc(a1-3)]GlcNAc(b1-6)[Gal(b1-3)]GalNAc
Procedure, shortened: as §1

[34] = target: Neu5Ac(a2-3)Gal(b1-4)[Fuc(a1-3)]GlcNAc(b1-6)[Neu5Ac(a2-3)Gal(b1-3)]GalNAc
Procedure, shortened: as §1

[35] = target: Neu5Ac(a2-3)Gal(b1-4)[Fuc(a1-3)]GlcNAc6S
Procedure, shortened: as §1

[36] = target: Neu5Ac(a2-3)Gal6S(b1-4)GlcNAc
Procedure, shortened: as §1

[37] = target: Neu5Ac(a2-3)Gal6S(b1-4)[Fuc(a1-3)]GlcNAc
Procedure, shortened: as §1

B1: PX9961H-bth-557-24-557 (Bacteroides thetaiotaomicron) (protein)
chain: EETRTEVEKKNYMNNAEEAKDVLLGVYRTNTLDAMYGYYLSILFNLGTDISQVEGSGNENFRIIPTNSFPTTQSEVQQTWAALYTGIYRANDFLERISNKIGSYTTTDKKLATLYIAEARALRGMFYFELVRRFGNVVLMTSTQMSNQNPATYVQSAPEKVYEYIEDDLLYACDILPYATDDQYRESNDYRFSKGAALGLLTKVYATWAGYPVKDESKWEAAAKTARILVESGKHGLLKDYEQLWKNTCNGTWDPTESLIEISFYSPTVSGNSDPVGRIGKWNGVKTTAIAGVRGSCAANVKVVHTFVLDWREDVSDIRRDLSIANYQYTDTKKSLWVAGASDTDESAAEKDADPTKAQKNKQNYTPAKWDIQKYVTTNSFINNDKSNVNWYFLRYADVLLLYAEALNEWKHGPDAEAYNAINAVRRRGYGNPSNTSACDLPQGLDETSFREAVRKERSYELSFEGHRRQDLIRWGIYYKTVQATAKELGYWWEGTGSPNYSVATYTEEGKHELFPIPQRDMDLCIQFNQNPKW
Neu5Ac(a2-3)Gal(b1-4)Glc
  glycan array binding signal (z-score): -0.48
[1]
  glycan array binding signal (z-score): -0.308
[2]
  glycan array binding signal (z-score): -0.255
[3]
  glycan array binding signal (z-score): -0.549
[4]
  glycan array binding signal (z-score): -0.412
[5]
  glycan array binding signal (z-score): -0.627
[6]
  glycan array binding signal (z-score): 0.063
[7]
  glycan array binding signal (z-score): -0.34
[8]
  glycan array binding signal (z-score): -0.484
[9]
  glycan array binding signal (z-score): 0.043
[10]
  glycan array binding signal (z-score): -0.382
[11]
  glycan array binding signal (z-score): -0.075
[12]
  glycan array binding signal (z-score): -0.46
[13]
  glycan array binding signal (z-score): -0.442
[14]
  glycan array binding signal (z-score): -0.274
[15]
  glycan array binding signal (z-score): 0.149
[16]
  glycan array binding signal (z-score): 0.048
[17]
  glycan array binding signal (z-score): 0.076
[18]
  glycan array binding signal (z-score): 0.001
[19]
  glycan array binding signal (z-score): -0.144
[20]
  glycan array binding signal (z-score): -0.27
[21]
  glycan array binding signal (z-score): -0.024
[22]
  glycan array binding signal (z-score): -0.467
[23]
  glycan array binding signal (z-score): -0.505
[24]
  glycan array binding signal (z-score): -0.448
[25]
  glycan array binding signal (z-score): -0.64
[26]
  glycan array binding signal (z-score): -0.48
[27]
  glycan array binding signal (z-score): -0.576
[28]
  glycan array binding signal (z-score): -0.138
[29]
  glycan array binding signal (z-score): -0.245
[30]
  glycan array binding signal (z-score): 0.014
[31]
  glycan array binding signal (z-score): -0.227
[32]
  glycan array binding signal (z-score): -0.392
[33]
  glycan array binding signal (z-score): 0.835
[34]
  glycan array binding signal (z-score): 1.13
[35]
  glycan array binding signal (z-score): -0.214
[36]
  glycan array binding signal (z-score): -0.532
[37]
  glycan array binding signal (z-score): -0.729
